# Assay results from PubChem BioAssay AID1768 (National Center for Advancing Translational Sciences (NCATS), 2009).
# Several values for one entry are separate records, joined by “and”; a condition that tells them apart may be missing. Equal values may be shown once. The whole screen tested about 270,000 compounds, of which about 620 (0.23%) were called active. The shares of active, inactive and inconclusive entries below differ from those in the screen. Calls come from the whole dose curve; as a rule, active = well fitted inhibition curve with a large enough effect in the polarisation, with a control signal flat (not every such curve was filed as active); inconclusive = small, poorly fitted or top-dose-only effect, or effect the other way, or a change in a side signal; inactive = no such curve, though single readings can be large or run the other way; the % refers to the polarisation. A potency beside an inconclusive call is a rough fit, not a confirmed value. “Side channel” marks fits to a control or component signal instead of the main read-out.
# Target: Menin (Homo sapiens) (UniProt O00255)
# UniProt O00255, sequence (O00255 whole entry, looked up): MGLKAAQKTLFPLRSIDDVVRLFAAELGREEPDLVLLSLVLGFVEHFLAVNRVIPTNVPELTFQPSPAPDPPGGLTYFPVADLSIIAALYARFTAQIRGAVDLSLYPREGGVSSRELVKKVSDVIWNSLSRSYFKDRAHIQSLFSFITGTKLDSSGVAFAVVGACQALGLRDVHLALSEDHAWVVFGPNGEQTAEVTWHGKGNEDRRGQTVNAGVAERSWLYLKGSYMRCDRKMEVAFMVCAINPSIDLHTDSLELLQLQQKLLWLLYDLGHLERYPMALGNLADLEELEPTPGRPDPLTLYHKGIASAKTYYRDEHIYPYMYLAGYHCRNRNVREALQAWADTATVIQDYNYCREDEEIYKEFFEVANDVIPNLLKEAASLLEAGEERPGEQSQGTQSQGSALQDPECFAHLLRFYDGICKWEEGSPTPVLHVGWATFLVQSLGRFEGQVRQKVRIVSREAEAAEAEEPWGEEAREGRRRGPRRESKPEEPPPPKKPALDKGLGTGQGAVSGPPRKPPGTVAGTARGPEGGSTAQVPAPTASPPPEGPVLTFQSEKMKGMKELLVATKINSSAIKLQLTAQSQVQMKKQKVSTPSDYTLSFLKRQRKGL
# Experiment: qHTS Assay for Inhibitors Targeting the Menin-MLL Interaction in MLL Related Leukemias: Competition With Texas Red Labeled MLL-derived Mutant Peptide; for FP activity change, negative = inhibition: % of control where 0% means no effect
# Conditions: fluorescence polarization; FP activity change, negative = inhibition: at 61.6 µM (top of the series)
# Potency is the fitted concentration of half-maximal effect; tags give direction and shape of the fitted curve or compound fluorescence and quenching.
Structure (SMILES),Potency,"FP activity change, negative = inhibition"
CCCCc1nc2sc3c(SCC(=O)NCc4ccco4)ncnc3c2c2c1CCC2,"inconclusive: 17.8 µM [fluorescent, side channel, partial curve]",–
O=C(c1cccc(OC2CCN(C3CCCC3)CC2)c1)N1CCCCCCC1,"inconclusive: 22.4 µM [fluorescent, side channel, partial curve]",–
CC(Cc1cccs1)NC(=O)Nc1ccc(Cl)c(Cl)c1 (stereo not given),"inconclusive: 17.8 µM [quencher, side channel, partial curve]",–
O=C(Nc1nnc(-c2ccccc2Cl)s1)c1ccccc1F,"inconclusive: 14.1 µM [inhibitor, partial curve]",–
O=C1NC(=O)C2C1C(c1ccc([N+](=O)[O-])cc1)=NN2Cc1ccccc1 (stereo not given),"inconclusive: 22.4 µM [quencher, side channel, partial curve]",–
O=C(C[n+]1cc(-c2ccccc2)n2c1CCC2)Nc1nc(-c2ccc(F)cc2)cs1,"inconclusive: 31.6 µM [inhibitor, partial curve]",–
O=C(NCc1cccs1)C1CCC(CNS(=O)(=O)c2cccc3nsnc23)CC1 (stereo not given),"inconclusive: 31.6 µM [fluorescent, side channel, single point]",–
Cc1ccc(-c2cc(N)n3nc(-c4ccc(C)cc4)cc3n2)cc1,"inconclusive: 28.2 µM [inhibitor, single point]",–
CCCCOC(=O)NS(=O)(=O)c1sc(CC(C)C)cc1-c1ccc(Cn2c(CC)nc3c(C)cc(C)nc32)cc1,"inconclusive: 4.47 µM [fluorescent, side channel, full curve]",–
Nc1cc(OC(=O)c2ccccc2Br)nn1S(=O)(=O)c1ccccc1,"inconclusive: 11.2 µM [quencher, side channel, partial curve]",–
C/C(CC(=O)Nc1ccc(Cl)c(C(F)(F)F)c1)=N\NC(=O)c1cc2ccccc2cc1O,"inconclusive: 10 µM [quencher, side channel, partial curve]",–
Cc1cc(C)cc(NC(=O)Cn2nnc3ccccc3c2=O)c1,"inconclusive: 39.8 µM [fluorescent, side channel, single point]",–
COc1ccc(O)c(C(=O)c2cnn(-c3ccc(Cl)cc3)c2)c1,"inconclusive: 28.2 µM [fluorescent, side channel, single point]",–
CCN(CC)CC(=O)c1c[nH]c2ccc(OC)cc12,"inconclusive: 17.8 µM [quencher, side channel, partial curve]",–
OC[C@@H]1O[C@H](O)[C@H](O)[C@@H](O)[C@@H]1O,–,inactive: -7.69%
Cc1ccc(C2CC(=O)Oc3cc(C)c(Cl)cc32)cc1 (stereo not given),–,inactive: 16.4% [at 94.6 µM]
CCCC(=O)OCCNc1cc(SCCC(=O)OC)c2nonc2c1[N+](=O)[O-],"inconclusive: 20 µM [quencher, side channel, partial curve]",–
CC(C)C(=O)NC(c1ccco1)c1ccc2cccnc2c1O (stereo not given),–,inactive: -12.1%

Structure (SMILES),Potency,"FP activity change, negative = inhibition"
CCN(c1ccccc1)S(=O)(=O)c1ccc(NC(=O)c2ccco2)cc1,"inconclusive: 11.2 µM [quencher, side channel, partial curve]",–
O=[N+]([O-])c1ccccc1N/N=C/c1ccccc1,"inconclusive: 25.1 µM [quencher, side channel, single point]",–
COc1ccc(-c2csc(NC(=S)NC(=O)c3cccs3)n2)cc1OC,"inconclusive: 3.16 µM [quencher, side channel, full curve]",–
CCOc1ccc(Oc2cc(N)cc([N+](=O)[O-])c2)cc1,"inconclusive: 20 µM [quencher, side channel, partial curve]",–
CN(C(=O)c1ccccc1F)C(c1ccccc1)c1ccccc1,"inconclusive: 39.8 µM [fluorescent, side channel, single point]",–
CCOC(=O)c1ccc(NC(=O)c2cccc(C)c2[N+](=O)[O-])cc1,"inconclusive: 28.2 µM [quencher, side channel, partial curve]",–
Cn1c(=O)c(C(=O)COC(=O)c2cc(-c3ccco3)nc3ccccc23)c(N)n(Cc2ccccc2)c1=O,"inconclusive: 8.91 µM [quencher, side channel, partial curve] and inconclusive: 3.55 µM [quencher, side channel, full curve]",–
CCCCCCCc1cc2c(cn1)C(=O)C(C)(OC(C)=O)C(O)=C2Cl (stereo not given),–,inactive: 3.32%
CCN(CC)c1ccc(/C=N/NC(=S)NCc2ccccc2)c(O)c1,"inconclusive: 31.6 µM [quencher, side channel, partial curve]",–
COc1ccc(OC)c(N=Cc2c(O)[nH]c3ccccc23)c1,"inconclusive: 14.1 µM [quencher, side channel, partial curve]",–
O=[N+]([O-])c1ccc(N2CCN(c3ccccc3)CC2)nc1,"inconclusive: 5.01 µM [inhibitor, full curve]",–
CCOC(=O)C1=C(COC(=O)C2(C)CC2(Cl)Cl)NC(=O)NC1c1ccccc1 (stereo not given),"inconclusive: 44.7 µM [inhibitor, partial curve]",–
CC1CCN(CCCN2C(=O)C3C(C(=O)Nc4ccc(Cl)cc4)C4C=CC3(O4)C2C(=O)NC2CCCCC2)CC1 (stereo not given),"inconclusive: 31.6 µM [inhibitor, single point]",–
CCCCCCCCn1c2c(c(=N)c3c1CCC3)CCCC2,"inconclusive: 2.51 µM [fluorescent, side channel, full curve]",–
O=C(Cc1ccc([N+](=O)[O-])cc1)Nc1cccc(C(F)(F)F)c1,"inconclusive: 12.6 µM [quencher, side channel, partial curve]",–
CCNC(=O)/C(C#N)=C/c1c(N2CCN(c3ccccc3)CC2)nc2c(C)cccn2c1=O,"inconclusive: 35.5 µM [inhibitor, single point]",–
COc1cc2cc(C(=O)N3CCOCC3)cc(-c3ccc(C)cc3)c2cc1OC,"inconclusive: 25.1 µM [fluorescent, side channel, partial curve]",–
